From US20240269263A1 (published 2024)

T1: human IL-10 Receptor β (human, UniProt Q08334 20-220, limits assumed)
T1 construct: Coated on ELISA plates at 2 µg/mL; also called hIL-10Rβ; hIL-10Rβ subunit
T1 sequence: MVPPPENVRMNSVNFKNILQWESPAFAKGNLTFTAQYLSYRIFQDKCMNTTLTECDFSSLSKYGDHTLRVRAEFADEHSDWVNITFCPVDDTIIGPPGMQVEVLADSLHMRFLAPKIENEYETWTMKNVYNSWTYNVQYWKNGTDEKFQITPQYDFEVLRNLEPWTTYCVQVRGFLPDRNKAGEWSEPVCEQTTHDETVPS

T2: human IL-10 Receptor α (human, UniProt Q13651 22-235, limits assumed)
T2 construct: Coated on ELISA plates at 2 µg/mL; also called hIL-10Rα; hIL-10Rα subunit
T2 sequence: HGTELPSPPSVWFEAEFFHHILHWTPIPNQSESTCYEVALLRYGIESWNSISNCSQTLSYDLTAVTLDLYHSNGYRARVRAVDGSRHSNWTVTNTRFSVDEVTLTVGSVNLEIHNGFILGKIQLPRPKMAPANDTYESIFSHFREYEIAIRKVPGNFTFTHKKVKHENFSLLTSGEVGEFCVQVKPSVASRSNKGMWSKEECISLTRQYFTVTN


What was measured:
human IL-10 Receptor β = biological target: T1, human IL-10 Receptor β; experiment: ELISA, receptor subunit coated at 2 µg/mL, fusion protein supernatant, anti-human IgG-HRP detection, A450
human IL-10 Receptor α = biological target: T2, human IL-10 Receptor α; experiment: ELISA, receptor subunit coated at 2 µg/mL, fusion protein supernatant, anti-human IgG-HRP detection, A450; compared with hIL-10R BFP-10

Binder | binding result (human IL-10 Receptor β) | binding result (human IL-10 Receptor α)
hIL-10R BFP-10 (SEQ ID NO: 534) (Fc fusion, Added to the ELISA as supernatant protein) [gap - human IgG4 Fc with S228P F234A L235A (EU numbers) and a few adjoining residues]GGGGGGGSGGGGSGGGGSKGRDSKPSPACDPMHGALAGIFKELRTTYRSVREALQTKDTVYYVSLFHEQLLQEMLSPVGCRVTNELMQHYLDGVLPRAFHCGYDNATLNALHALSSSLSTLYQHMLKCPALACTGQTPAWTQFLDTEHKLDPWKGTVKATAEMDLLLNYLETFLLQS | binds | –
hIL-10R BFP-1 (SEQ ID NO: 522) (Fc fusion, Added to the ELISA as supernatant protein) [gap - human IgG4 Fc with S228P F234A L235A (EU numbers) and a few adjoining residues]GGGGGGGSGGGGSGGGGSSPGQGTQSENSCTHFPGNLPNMLRDLRDAFSRVKTFFQMKDQLDNLLLKESLLEDFKGYLGCQALSEMIQFYLEEVMPQAENQDPDIKAHVNSLGENLKTLRLRLRRCHRFLPCENKSKAVEQVKNAFNKLQEKGIYKAMSEFDIFINYIEAYMTMKIRN | – | binds
